In all, about 280,000 compounds went through this assay and about 1,100 (0.39%) were called active. Inconclusive results, whose numbers are uncertain, are shown with a selection of clear calls. The call rests on the fitted dose curve; in most records, active means well fitted inhibition curve with a large enough effect; inconclusive means small, poorly fitted or top-dose-only effect, or effect the other way; inactive means flat fitted curve, though single readings scatter. Potencies beside an inconclusive call are fits to weak or partial responses and may not hold up.
Target: Microtubule-associated protein tau (Homo sapiens) (UniProt P10636)
Chain of UniProt P10636 (P10636 whole entry, looked up): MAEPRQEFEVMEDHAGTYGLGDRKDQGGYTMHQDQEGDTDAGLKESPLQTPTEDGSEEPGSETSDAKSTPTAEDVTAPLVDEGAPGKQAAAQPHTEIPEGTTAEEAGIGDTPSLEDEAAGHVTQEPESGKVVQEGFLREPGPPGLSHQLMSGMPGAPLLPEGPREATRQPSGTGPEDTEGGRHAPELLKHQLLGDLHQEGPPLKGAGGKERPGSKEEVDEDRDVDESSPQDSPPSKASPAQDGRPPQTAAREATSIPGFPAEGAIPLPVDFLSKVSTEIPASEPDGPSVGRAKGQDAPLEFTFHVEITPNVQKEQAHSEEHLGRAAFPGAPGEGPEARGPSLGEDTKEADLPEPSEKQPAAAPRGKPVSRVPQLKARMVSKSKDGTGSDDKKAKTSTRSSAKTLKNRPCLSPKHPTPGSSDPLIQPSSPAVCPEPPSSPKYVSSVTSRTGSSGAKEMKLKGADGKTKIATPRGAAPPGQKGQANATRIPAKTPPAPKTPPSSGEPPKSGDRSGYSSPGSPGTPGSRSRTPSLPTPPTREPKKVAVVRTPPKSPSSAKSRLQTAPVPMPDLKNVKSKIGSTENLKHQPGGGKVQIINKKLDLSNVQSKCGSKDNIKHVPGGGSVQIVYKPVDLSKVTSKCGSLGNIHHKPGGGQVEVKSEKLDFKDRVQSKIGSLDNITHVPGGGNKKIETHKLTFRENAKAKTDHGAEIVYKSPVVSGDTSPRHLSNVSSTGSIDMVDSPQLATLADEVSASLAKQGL
Experiment: qHTS for Inhibitors of Tau Fibril Formation, Fluorescence Polarization; further: nearly all actives have a fitted effect of over 55% in size
Settings: K18 P301L tau heparin fibrillization, Alexa594 FP, 6 h; series mostly up to 57.7 µM
Outline: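 FP of Alexa 594-tau after heparin (20 uM) induction. Substrate: human K18 P301L, 15 uM unlabeled, 0.24 uM labeled. Buffer 100 mM sodium acetate pH 7. 6 hr, 37 C.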
On the % scale 0 is the no-effect control and ±100 the full control effect; potency means the concentration at half of the fitted maximal effect; tags describe the fitted curve by direction and shape.

Potency, inactive:
O=C(NCCCCNC(=O)c1ccccn1)c1ccccn1
COc1cccc(/C=N/NC(N)=S)c1OCc1ccccc1Cl
COc1ccccc1NC(=O)c1sc2nc3c(cc2c1N)CCCCCC3
CCCN=C(C)c1c(-c2ccccc2)[nH]n(-c2nc3ccccc3s2)c1=O
N#CC1=C(N)OC2=C(C(=O)CCC2)[C@]12C(=O)N(CC(N)=O)c1ccccc12
CCC(c1nnnn1Cc1ccco1)N(CCc1ccccc1)Cc1cc2cc(C)ccc2[nH]c1=O (centres undefined)
O=C(CCS(=O)(=O)c1cccc2nsnc12)Nc1ccc(F)cc1
CSc1cccc(NC(=O)C2CCN(C(=O)c3cnn(-c4ccccc4)c3-n3cccc3)CC2)c1
COc1ccc(/C=N/Nc2c(Cl)cc(Cl)cc2Cl)cc1CN1CCOCC1
COC(=O)C1=C(CN2CCc3ccccc32)NC(=O)NC1c1cc(C)ccc1C (centres undefined)
CC(C)(O)/C=C1/Oc2ccccc2C1N1CCCCC1 (centres undefined)
CCC(C)NC(=O)CSc1nc2c(sc3ccccc32)c(=O)n1Cc1ccccc1Cl (centres undefined)
COCCCNC(=O)CSc1nc2c(sc3ccccc32)c(=O)n1CCCC(=O)NCCOC
COc1cccc(NC(=O)Cc2ccccc2)c1
NC(=O)C1CCN(c2cc(Cl)nc(N)n2)CC1
CCC(CC)c1nnc(NC(=O)Cc2ccccc2[N+](=O)[O-])s1
Cc1nc(NCCN2CCOCC2)c2oc3ccccc3c2n1
Cc1ccc(C2CC(=O)C=C(NCC(C)C)C2)cc1 (centres undefined)
COC(=O)C(/C=N/OCc1ccc([N+](=O)[O-])cc1)NC(=O)c1cccc(Cl)c1 (centres undefined)
C=C1CSc2nc(=O)c3c4c(sc3n21)CCC4
C=C(C)C(=O)NNc1ccccc1

Potency, inconclusive:
C=CCSc1nc2ccccc2n1C(=O)/C=C/c1ccc(OC)c(OC)c1 25.1 µM [inhibitor, partial curve]
O=C(NCCNc1ccc([N+](=O)[O-])cc1)c1cccc2c(Br)cccc12 39.8 µM [inhibitor, single point]
CC(NC(=O)c1sc2cc([N+](=O)[O-])ccc2c1Cl)C(C)(C)C (centres undefined) 31.6 µM [inhibitor, partial curve]
O=C(CSc1ccccc1)Nc1ccc(-c2nc3ccccc3[nH]2)cc1 15.8 µM [inhibitor, partial curve]
Cc1ccc(Cl)cc1N1CCN(CCNC(=O)Nc2ccccc2Cl)CC1 20 µM [inhibitor, partial curve, poor fit]
c1ccc(CN(Cc2ccco2)C(c2ccncc2)c2nnnn2C2CCCC2)cc1 (centres undefined) 39.8 µM [inhibitor, single point]
O=C(O)C(C(=O)/C=C/c1ccco1)=C1SCCS1 28.2 µM [inhibitor, partial curve]
CCCOC(=O)c1ccc(Oc2cn[nH]c2-c2ccc(OCC)cc2O)cc1 39.8 µM [inhibitor, single point]
O=C(Nc1ccc(Cl)cc1)/C(=C/c1ccc([N+](=O)[O-])cc1)c1nc2ccccc2s1 17.8 µM [inhibitor, partial curve]
Cc1ccc(Cl)cc1NC(=O)C(=O)NCC(c1cccnc1)N1CCc2ccccc21 (centres undefined) 39.8 µM [activator, single point]
COc1ccc(-c2csc(NC(=O)COc3ccc(N(C)S(=O)(=O)c4ccc(C)cc4)cc3)n2)cc1 39.8 µM [inhibitor, single point]
Cn1nc(C(F)(F)F)c(-c2ccc(Br)cc2)c1NC(=O)Nc1ccc(F)cc1F 20 µM [inhibitor, partial curve]
CO[C@@H](CCO)C[C@H]1O[C@H](C(=O)OC(C)C)CC[C@@H]1C 1.26 µM [inhibitor, single point]
Cc1ccc(-c2cc(C(=O)Oc3ccccc3)c3cc(C)ccc3n2)cc1 14.1 µM [inhibitor, partial curve]
CN(C(=O)COC(=O)c1cc(NS(=O)(=O)c2cc([N+](=O)[O-])ccc2Cl)ccc1O)C1CCCCC1 3.55 µM [activator, partial curve]
O=C(COc1ccccc1)NCC(=O)Nc1ccc(S(=O)(=O)NCc2ccco2)cc1 8.91 µM [inhibitor, single point]
CCOC(=O)Cn1nc(C)c(NC(=O)COc2ccc(Cl)cc2C)c1C 10 µM [inhibitor, single point]
CCOc1ccccc1NC(=O)Cn1ccn(Cc2ccc(C)cc2)c(=O)c1=O 44.7 µM [inhibitor, single point]
CC(Nc1cccc2ccccc12)C(=O)N/N=C/c1ccc([N+](=O)[O-])cc1 (centres undefined) 1 µM [activator, full curve, poor fit]
Cc1cc(NC(=O)C2CCN(S(=O)(=O)c3ccc4[nH]c(=O)oc4c3)CC2)ccc1Br 25.1 µM [inhibitor, partial curve, poor fit]
Cc1cc(C)c(NC(=O)Nc2ccc3snnc3c2)c(C)c1 39.8 µM [inhibitor, single point]
Cc1ccc(C)c(CSc2nc3ccncc3n2CC(=O)Nc2ccc(N(C)C)cc2)c1 2.24 µM [activator, partial curve]
O=c1c2ccccc2nc(COc2ccccc2)n1/N=C/c1cn[nH]c1-c1ccccc1 12.6 µM [inhibitor, partial curve, poor fit]
CCOC(=O)c1c(NC(=O)c2cccs2)sc(CC)c1-c1cccs1 20 µM [inhibitor, single point]
CCCCC(=O)Nc1ccc(C(=O)Nc2ccc(S(=O)(=O)Nc3nccc(C)n3)cc2)cc1 17.8 µM [inhibitor, partial curve]
CCC(=O)N1N=C(c2ccc(C)o2)CC1c1ccc(Br)cc1 (centres undefined) 7.94 µM [inhibitor, single point]
O=C(c1ccccc1)c1ccc2nc(-c3ccc(NC(=O)c4ccccc4F)cc3)[nH]c2c1 20 µM [inhibitor, single point]
CCc1ccc(C(=O)Cn2ncc(Cl)c(Cl)c2=O)cc1 0.224 µM [inhibitor, partial curve]
Cc1ccc(SCc2c(-c3ccccc3)nn(C)c2Cl)cc1 0.0251 µM [inhibitor, full curve, poor fit]
CCOC(=O)c1sc(NC(=O)CSc2n[nH]c(-c3ccc(Cl)cc3Cl)n2)c(C#N)c1C 1.26 µM [inhibitor, full curve]
O=C(Cn1c(=O)n(-c2ccccc2Cl)c(=O)c2sc3ccccc3c21)NC1CCCCC1 25.1 µM [inhibitor, single point]
Cc1ccc(-c2cc(C(F)(F)F)c(C#N)c(SCC(=O)Nc3ccccc3)n2)cc1 11.2 µM [inhibitor, partial curve]
CCCCc1ccc(Nc2nc(CCC)cc(=O)[nH]2)cc1 39.8 µM [inhibitor, single point]
Cc1ccc(NC(=O)Cn2c(=O)oc3cc(S(=O)(=O)NCc4ccccc4)ccc32)cc1 28.2 µM [inhibitor, partial curve, poor fit]
CO[C@]1(C2=NCCN2)COc2ccccc2O1 39.8 µM [inhibitor, single point]
O=C(c1cccs1)N1N=C(c2ccccc2)CC1c1ccc(O)cc1 (centres undefined) 39.8 µM [inhibitor, single point]
COc1ccc(C)cc1NC(=O)c1nnn(Cc2cccc(C(F)(F)F)c2)c1N 10 µM [inhibitor, partial curve]
COC(=O)/C(C#N)=C/c1c(Oc2cccc(C)c2C)nc2ccccn2c1=O 8.91 µM [inhibitor, single point]
CCc1ccc(NC(=S)Nc2cccc3cnccc23)cc1 25.1 µM [inhibitor, single point]
O=C(Nc1ccc(Cl)cc1)Nc1nnc(CSCc2ccccc2)s1 28.2 µM [inhibitor, partial curve]
CC(=O)Nc1ccc(NC(=O)CSc2nc3ccccc3nc2N2CCC(C)CC2)cc1 31.6 µM [inhibitor, partial curve]
COC(=O)c1ccc(Cl)c(-c2ccc(/C=N/NC(=O)Nc3ccccc3)o2)c1 3.98 µM [inhibitor, partial curve, poor fit]
C=CCOC(=O)N[C@@H](c1ccc(Br)cc1)C(C(C)=O)C(C)=O 2.24 µM [inhibitor, partial curve, poor fit]
COc1ccc(/C=N/NC(=O)COc2ccccc2-c2ccccc2)cc1 14.1 µM [inhibitor, partial curve]

Potency, active:
COC(=O)c1cccc(Nc2cc(C)nc(-c3ccccc3O)n2)c1 11.2 µM
CC(C)C(C)(C#N)NC(=O)CSc1nc2scc(-c3ccco3)c2c(=O)n1-c1ccccc1 (centres undefined) 7.94 µM

activity, negative = inhibition, inactive:
CC(C)=NOC[C@@H](O)COCc1ccco1 -4.52% [at 11.6 µM]
COC(=O)[C@H](Cc1ccccc1)NC(=O)[C@@H](C)CO -1.08% [at 11.6 µM]
